The BET-seq Pho4 binding data (Le et al. 2018)
The list shows a part of the results. The energies were worked out here from pooled read counts, against the library average; single values are noisy.

Biological target: T1, Pho4 (S. cerevisiae) (UniProt P07270)
T1 sequence: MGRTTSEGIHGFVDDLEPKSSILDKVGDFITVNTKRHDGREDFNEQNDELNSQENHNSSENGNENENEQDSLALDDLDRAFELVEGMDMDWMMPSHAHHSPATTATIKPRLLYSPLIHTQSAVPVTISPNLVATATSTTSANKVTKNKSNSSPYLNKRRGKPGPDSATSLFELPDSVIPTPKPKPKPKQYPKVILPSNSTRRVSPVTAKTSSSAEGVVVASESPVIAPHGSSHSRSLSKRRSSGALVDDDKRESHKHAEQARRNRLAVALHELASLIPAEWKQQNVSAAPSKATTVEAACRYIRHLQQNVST
Assay: relative binding free energy (BET-seq); higher = weaker binding
Details: reference: library average

Sequence	relative binding free energy
GGCTGCACGTGGTAAG	0.08 kcal/mol
AGGATCACGTGTGGAC	0.24 kcal/mol
GTAAGCACGTGGGTGG	-0.13 kcal/mol
TGATACACGTGTAGCG	0.11 kcal/mol
GGGGGCACGTGGTTGG	-0.1 kcal/mol
GTACTCACGTGATAGT	0.35 kcal/mol
GTGATCACGTGTTTGG	0.23 kcal/mol
GAGTACACGTGAGGTC	0.51 kcal/mol
ATTCACACGTGGGTGA	0.08 kcal/mol
TTGAGCACGTGGTCGG	-0.16 kcal/mol
TATTTCACGTGGGCGT	0.09 kcal/mol
GGGTGCACGTGATCAT	0 kcal/mol
GTGTTCACGTGTATGG	0.23 kcal/mol
TTTGTCACGTGGTCAA	0.07 kcal/mol
ATGGGCACGTGGTGTC	-0.1 kcal/mol
AGAGGCACGTGTAAGA	0.1 kcal/mol
GGAGTCACGTGTGAAG	0.05 kcal/mol
TCATACACGTGGGGGT	-0.03 kcal/mol
GCCATCACGTGTGTGG	0.25 kcal/mol
CGTTGCACGTGTGTTA	-0.04 kcal/mol
TAGAGCACGTGCGGGA	-0.06 kcal/mol
GGGTCCACGTGAGAGT	0.2 kcal/mol
AGATTCACGTGCCTGT	0.42 kcal/mol

Sequence	relative binding free energy
GGGGCCACGTGCAAGG	0.02 kcal/mol
GGTTGCACGTGGTGAG	-0.01 kcal/mol
TAAGCCACGTGAGTGT	0.08 kcal/mol
TTGGGCACGTGATACT	0.05 kcal/mol
CTTTTCACGTGTGGTA	0.18 kcal/mol
ATATTCACGTGGGGAT	0.11 kcal/mol
TCGGGCACGTGGGTAG	-0.24 kcal/mol
GTATTCACGTGCGTAG	0.15 kcal/mol
TAATTCACGTGGGCGG	0.07 kcal/mol
TGATTCACGTGTACGG	0.24 kcal/mol
TTTGGCACGTGGGACG	-0.12 kcal/mol
ATGTCCACGTGGATGG	-0.06 kcal/mol
CGAGTCACGTGTTTGA	0.01 kcal/mol
CAGATCACGTGGGTTG	-0.13 kcal/mol
CGGTTCACGTGATATA	0.43 kcal/mol
GATCTCACGTGTTTGT	0.12 kcal/mol
GTCGGCACGTGTGTCT	-0.03 kcal/mol
AGATGCACGTGCGTGA	-0.06 kcal/mol
GTTTGCACGTGGTATC	0.07 kcal/mol
GGCTGCACGTGTAAAG	0.21 kcal/mol
GTTATCACGTGTTTAG	0.12 kcal/mol
AGTGTCACGTGTCCGT	0.06 kcal/mol
TTTATCACGTGTCTTG	0.22 kcal/mol

Sequence	relative binding free energy
ATACTCACGTGAGGTT	0.28 kcal/mol
TAGGGCACGTGCAGTT	-0.15 kcal/mol
GGTAGCACGTGAGTTC	0.31 kcal/mol
CTGTGCACGTGGGATT	-0.12 kcal/mol
ATGAACACGTGAGTGG	0.09 kcal/mol
GTAATCACGTGGGTGA	0.16 kcal/mol
CGCTACACGTGGAGTG	0.22 kcal/mol
GGGGGCACGTGGCTAT	-0.22 kcal/mol
GGGTCCACGTGGGGCT	-0.28 kcal/mol
TAGGTCACGTGCGTAT	-0.04 kcal/mol
AATTCCACGTGGTGGT	0.14 kcal/mol
AGGTTCACGTGAGAGT	0.48 kcal/mol
CTTGTCACGTGATTAT	0.06 kcal/mol
TACTGCACGTGGCTTT	-0.02 kcal/mol
CATTGCACGTGTGTAT	-0.04 kcal/mol
GTTGGCACGTGTTAAA	-0.01 kcal/mol
GGTCGCACGTGTAGCG	0.05 kcal/mol
GGATGCACGTGTGGCA	0.14 kcal/mol
CCGTGCACGTGTTTGG	-0.09 kcal/mol
GGTCTCACGTGAATTG	0.43 kcal/mol
GGGTACACGTGTAGGA	0.13 kcal/mol
GGCGGCACGTGGAAGT	0.04 kcal/mol
TTTTGCACGTGTGTGT	0.08 kcal/mol

Sequence	relative binding free energy
AGTTGCACGTGTGCAG	0.08 kcal/mol
AGAGGCACGTGATATG	-0.23 kcal/mol
GGGGGCACGTGTGGTG	-0.04 kcal/mol
AGGGGCACGTGCCGCG	-0.16 kcal/mol
GGTGGCACGTGGTTCG	-0.1 kcal/mol
TTGGGCACGTGTATCG	-0.09 kcal/mol
AGGAGCACGTGGTCGT	-0.16 kcal/mol
TATAACACGTGTTCGG	0 kcal/mol
TACGTCACGTGCGTGG	0.01 kcal/mol
TTGTGCACGTGCATGG	0.01 kcal/mol
AATTGCACGTGTGAAA	0.15 kcal/mol
CTGTTCACGTGGTTAC	0.28 kcal/mol
TATTGCACGTGTGGTC	0.15 kcal/mol
AGTTTCACGTGCATAT	0.13 kcal/mol
TTGGGCACGTGTAATC	0.03 kcal/mol
GGGTTCACGTGTAGCG	0.45 kcal/mol
GGGGACACGTGATGGC	0.14 kcal/mol
TGTTACACGTGAAATT	0.37 kcal/mol
TCGATCACGTGTTGGG	0.12 kcal/mol
TTGGCCACGTGTTCTT	-0.09 kcal/mol
AGCGACACGTGTGCGG	0.01 kcal/mol
AGCGACACGTGTGAGG	0.05 kcal/mol
ATGGGCACGTGGGCAG	-0.32 kcal/mol

Sequence	relative binding free energy
GCAGTCACGTGAGGTG	0.3 kcal/mol
TGAGCCACGTGAGGGA	0.1 kcal/mol
GTTTACACGTGTACTG	0.18 kcal/mol
GTGCGCACGTGGGTAC	-0.14 kcal/mol
GTGTTCACGTGTGCGG	0.26 kcal/mol
GGTGTCACGTGAAGAG	0.16 kcal/mol
AAAGTCACGTGGTGTC	0.06 kcal/mol
TGGCCCACGTGCGGTG	-0.12 kcal/mol
TCTTGCACGTGTGGTA	0.03 kcal/mol
TTTTACACGTGCGTTA	0.1 kcal/mol
CTTGGCACGTGGGCAG	-0.28 kcal/mol
GGGAGCACGTGTCGTA	-0.07 kcal/mol
CTTGTCACGTGGAGAT	0.16 kcal/mol
ACTTACACGTGTTGTG	-0.07 kcal/mol
TAGTCCACGTGTGGAG	0.15 kcal/mol
ATCTTCACGTGTTGTT	0.12 kcal/mol
TATATCACGTGTTGGT	0.24 kcal/mol
TTTGTCACGTGCGTCA	0 kcal/mol
ATTGTCACGTGCAATG	0.04 kcal/mol
GTAGACACGTGTAATT	0.26 kcal/mol
ATGAACACGTGTAAGG	0.06 kcal/mol
GTCGTCACGTGAGAGG	0.31 kcal/mol
GTTTTCACGTGCCGTT	0.31 kcal/mol
